# Data as given in the antibiotic and cytotoxicity screens of Wong et al. (2023).
# This is one part of the list.
# Columns and labels:
# [1] = system: HSkMC (human skeletal muscle cells); assay: cytotoxicity call (relative viability < 0.9); conditions: 10 µM
# [2] = system: S. aureus RN4220; assay: growth inhibition call (relative growth <= 0.2); conditions: 50 µM
SMILES,cytotoxicity call [1],growth inhibition call [2]
Cc1noc(C)c1NC(=O)Nc1ccc2c(c1)C(=O)N([C@H](C)CO)C[C@H](C)[C@H](CN(C)S(=O)(=O)c1ccc(F)cc1)OCCCC[C@H](C)O2,inactive,inactive
CC(C)(C)CC(C)(C)c1cc(Cc2cc(C(C)(C)CC(C)(C)C)cc(-n3nc4ccccc4n3)c2O)c(O)c(-n2nc3ccccc3n2)c1,inactive,inactive
CO[C@H]1CN(C)C(=O)c2ccc(NS(=O)(=O)c3ccccc3)cc2OC[C@H](C)N(C(=O)NC(C)C)C[C@@H]1C,inactive,inactive
C[C@H]1CN([C@@H](C)CO)C(=O)Cc2cc(NC(=O)C3CCCCC3)ccc2O[C@H]1CN(C)C(=O)Nc1cccc2ccccc12,inactive,inactive
O=C(C[C@@H]1CC[C@H]2[C@@H](COC[C@@H](O)CN2C(=O)c2cnccn2)O1)NCc1ccc(Oc2ccccc2)cc1,inactive,inactive
CC(C)(C)c1c(C(C)(C)C)c1=O,inactive,inactive
COc1ccc(CN(C)C[C@H]2Oc3ccc(NC(=O)CCCCCC(=O)Nc4ccccc4N)cc3CC(=O)N([C@@H](C)CO)C[C@@H]2C)cc1,inactive,inactive
COCCOC(=O)N1C(=O)[C@@]2(c3cc(C#Cc4ccc(OC)cc4)ccc31)[C@H](C(=O)N1CCCCCCC1)[C@H]1C(=O)O[C@H](c3ccccc3)[C@H](c3ccccc3)N1[C@@H]2c1ccc(O)cc1,inactive,inactive
O=C(O)[C@H]1Cc2ccccc2CN1,inactive,inactive
C[C@H](CO)N1C[C@H](C)[C@H](CN(C)CC2CC2)OCCCC[C@H](C)Oc2ccc(NC(=O)CCC(F)(F)F)cc2C1=O,inactive,inactive
Cc1noc(C)c1NC(=O)Nc1ccc2c(c1)C(=O)N([C@H](C)CO)C[C@@H](C)[C@H](CN(C)C(=O)Nc1ccc(C(F)(F)F)cc1)OCCCC[C@@H](C)O2,inactive,inactive
COCC(=O)Nc1ccc2c(c1)C(=O)N(C)[C@H]1CC[C@@H](CC(=O)N3CCc4ccccc4C3)O[C@@H]1CO2,inactive,inactive
C[C@H](CO)N1C[C@H](C)[C@@H](CN(C)S(=O)(=O)c2ccc(Cl)cc2)OCCCC[C@H](C)Oc2ccc(NC(=O)c3ccncc3)cc2C1=O,inactive,inactive
Cc1cn([C@H]2C[C@H](F)[C@@H](CO)O2)c(=O)[nH]c1=O,inactive,inactive
C[C@@H]1CCCCO[C@H](CN(C)S(C)(=O)=O)[C@@H](C)CN([C@@H](C)CO)C(=O)c2cc(NC(=O)Nc3ccc(C(F)(F)F)cc3)ccc2O1,inactive,inactive
COC(=O)c1cc(-c2ccccc2)c(=O)n2c1N(C)[C@@]1(COCc3ccc(OC)cc3)Oc3ccccc3[C@@H]2[C@H]1CO[Si](C)(C)C(C)(C)C,inactive,inactive
N[C@@H](Cn1ccc(=O)n(Cc2ccccc2C(=O)O)c1=O)C(=O)O,inactive,inactive
CN1C(=O)[C@@H](O)N(c2ccccc2)C1=O,inactive,inactive
CC(C)N1CC[C@@H](CNCc2ccc(Oc3ccccc3)cc2)Oc2c(NC(=O)c3ccncc3)cccc2C1=O,inactive,inactive
C=CCC[C@H](Cc1ccc(F)cc1)C(=O)OC[C@H](Cc1c[nH]c2ccccc12)NC(=O)[C@H](CC=C)CC(=O)N[C@@H](CO)Cc1ccccc1,inactive,inactive
CN1C[C@@H]2CN(C(=O)[C@H]3CCOC3)C[C@H]2C1=O,inactive,inactive
C[C@@H]1CN([C@@H](C)CO)C(=O)c2cccc(NC(=O)c3ccncc3)c2O[C@@H]1CN(C)Cc1ccc(-c2ccccc2)cc1,inactive,inactive
C=CCn1c(O)c(C#N)c(C)cc1=O,inactive,inactive
O=C(O)CC[C@H]1CCC(=O)N1,inactive,inactive
C[C@H](CO)N1C[C@H](C)[C@H](CN(C)C(=O)Nc2ccc(C(F)(F)F)cc2)Oc2ncc(-c3ccc(C#N)cc3)cc2C1=O,inactive,inactive
C/C=C/c1ccc([C@@H]2[C@H](CO)N(S(=O)(=O)Cc3ccccc3)C23CN(C(=O)C2CCOCC2)C3)cc1,inactive,inactive
COc1ccc(S(=O)(=O)N(C)C[C@@H]2Oc3ccc(NS(=O)(=O)c4ccccc4)cc3C(=O)N([C@@H](C)CO)C[C@@H]2C)cc1,inactive,inactive
C[C@H](CO)N1C[C@H](C)[C@@H](CN(C)S(=O)(=O)c2ccc(F)cc2)Oc2ccc(NC(=O)C3CC3)cc2C1=O,inactive,inactive
